Reference: PubChem BioAssay AID488969 (Vanderbilt High Throughput Screening Facility, 2010)
In all, about 110,000 compounds were measured (“z-score”: median about -0.1, highest 2% from about 2 on). The list shows a part of the results.

biological target: Metabotropic glutamate receptor 8 (Rattus norvegicus) (UniProt P70579); test: rat mGluR8 modulators via GIRK flux, primary screen, cell-based, thallium flux, HTS (AID 488969); settings: HEK293 rat mGluR8, GIRK (G protein-gated inwardly rectifying potassium channel) thallium flux, FluoZin2; at 10 µM; stronger effect = higher value; submaximal glutamate (EC20) added with thallium
UniProt P70579, sequence (P70579 whole entry, looked up): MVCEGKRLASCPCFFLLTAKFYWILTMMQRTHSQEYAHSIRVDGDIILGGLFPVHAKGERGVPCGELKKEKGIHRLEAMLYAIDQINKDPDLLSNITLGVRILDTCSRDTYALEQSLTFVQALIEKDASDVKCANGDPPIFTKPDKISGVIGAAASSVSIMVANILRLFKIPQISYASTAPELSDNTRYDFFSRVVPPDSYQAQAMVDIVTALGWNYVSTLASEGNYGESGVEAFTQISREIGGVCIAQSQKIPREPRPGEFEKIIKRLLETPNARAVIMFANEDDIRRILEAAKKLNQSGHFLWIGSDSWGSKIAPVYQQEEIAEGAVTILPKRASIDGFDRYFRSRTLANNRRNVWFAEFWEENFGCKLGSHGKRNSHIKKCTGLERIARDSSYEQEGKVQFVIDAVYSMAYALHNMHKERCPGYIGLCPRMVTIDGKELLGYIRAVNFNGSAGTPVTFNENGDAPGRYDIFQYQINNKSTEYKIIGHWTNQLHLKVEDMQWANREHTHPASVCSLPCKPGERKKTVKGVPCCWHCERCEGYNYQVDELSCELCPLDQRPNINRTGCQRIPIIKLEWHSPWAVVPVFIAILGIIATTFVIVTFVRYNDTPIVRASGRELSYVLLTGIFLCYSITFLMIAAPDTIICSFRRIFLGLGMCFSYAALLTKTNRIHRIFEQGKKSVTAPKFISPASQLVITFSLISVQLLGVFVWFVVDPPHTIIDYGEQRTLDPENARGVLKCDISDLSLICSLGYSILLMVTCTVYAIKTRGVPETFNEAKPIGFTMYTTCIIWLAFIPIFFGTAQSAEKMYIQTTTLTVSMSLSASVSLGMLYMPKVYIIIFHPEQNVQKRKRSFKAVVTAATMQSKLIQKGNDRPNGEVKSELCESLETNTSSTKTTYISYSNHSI

Row | Structure (SMILES) | z-score
1 | COCC(=O)N(Cc1cc2ccccc2[nH]c1=O)c1ccccc1OC | 0.039
2 | O=C(CSCc1ccccc1)Nc1ccc2c(c1)OCO2 | 0.244
3 | COc1cc(OC)c(OC)cc1CN1CCN(S(=O)(=O)c2ccc(F)cc2)CC1 | -0.145
4 | C=CCNC(=O)CC(=O)N/N=C/c1ccc(C(=O)OC)cc1 | -0.131
5 | Cc1ccc(C(=O)N/N=C2\SCC(=O)N2c2cc(C)ccc2C)cc1 | -0.396
6 | Cc1c(NC(=O)c2c(F)c(F)c(F)c(F)c2F)c(=O)n(-c2ccccc2)n1C | -0.189
7 | CCOC(=O)c1sc(NC(=O)COC(=O)C(CCSC)NC(C)=O)nc1C (stereo unspecified) | 0.313
8 | O=C(Cn1c(C(=O)N2CCN(C3CCCCC3)CC2)cc2sccc21)c1ccccc1 | 0.45
9 | Cc1nnc(SC(C)C(=O)Nc2ccc3c(c2)OCCO3)s1 (stereo unspecified) | -0.277
10 | C=CCNC(=O)c1cc(-c2ccccc2O)on1 | 0.366
11 | CCN(CC)C(=O)C1CCCN(c2ccc([N+](=O)[O-])cc2/C=N/NC(=O)c2cccc([N+](=O)[O-])c2)C1 (stereo unspecified) | -0.835
12 | CN(C(=O)CCCN1C(=O)c2cccc3cccc(c23)C1=O)c1ccccc1 | -0.275
13 | Cc1ccc(Cn2nnc3c(=O)n(CC(=O)NCC4CCCO4)cnc32)cc1 (stereo unspecified) | -0.0187
14 | Cc1cc(N2CCOCC2)c2c(N)cc(C)c(C)c2n1 | 0.00567
15 | CC(=O)n1cc(Nc2ccccc2C(=O)O)c2ccccc21 | -1.18
16 | CCOc1ccccc1NC(=O)CCN1CCN(S(=O)(=O)c2ccc(Br)cc2)CC1 | -0.171
17 | Cc1ccc(NC(=O)Cc2c[nH]c3ccccc23)cc1S(=O)(=O)N1CCCCCC1 | 0.141
18 | COc1cc2c(c(O)c1OC)C(=O)C(OC)CCC2 (stereo unspecified) | -0.015
19 | Cc1cccc(C)c1NC(=O)C1(N(Cc2ccco2)C(=O)CC2NC(=O)NC2=O)CCCC1 (stereo unspecified) | -0.134
20 | Cc1nc(CS(=O)c2ccc(Cl)cc2)cc(NCc2ccc(Cl)cc2Cl)n1 (stereo unspecified) | 0.31
21 | COc1ccccc1Nc1nc2c(C)cccc2cc1C#N | -0.118
22 | COC(=O)c1cn(CCOc2ccccc2F)c2ccccc12 | -0.0507
23 | Cc1cc(C(=O)CSc2nnc(-c3cccc(F)c3)n2N)c(C)n1Cc1ccc2c(c1)OCO2 | 0.452
24 | CC(C)NC(=O)COC(=O)/C=C/c1ccc(F)cc1 | -0.158

Row | Structure (SMILES) | z-score
25 | CCOCCCNS(=O)(=O)c1ccccc1 | 0.319
26 | COc1ccc(-n2nc(C(=O)c3cccs3)cc(-c3nc4ccccc4[nH]3)c2=N)cc1 | -0.129
27 | COC(=O)N(NC(=O)C(O)(c1ccccc1)c1ccccc1)c1ccccc1 | -0.0551
28 | CCCOC(=O)c1cccc(NC(=O)c2cccnc2)c1 | -0.642
29 | O=C(Oc1c(-c2ccccc2Cl)oc2ccccc2c1=O)c1ccc(Cl)cc1 | -0.473
30 | CC1Cc2ccccc2N1CC(=O)NCc1ccc2c(c1)OCO2 (stereo unspecified) | -0.0574
31 | COc1ccc(-c2nnn(CC(=O)OC3CCCCC3)n2)cc1OC | -0.907
32 | Cc1nn(Cc2ccc(Cl)cc2Cl)c(Cl)c1/C=N/NC(=O)CNc1cccc(C(F)(F)F)c1 | -0.087
33 | Cc1cccc2cc(CN(CCN(C)C)C(=S)NCc3ccco3)c(=O)[nH]c12 | -0.185
34 | COc1ccccc1NC(=S)NNC(=O)c1nn(C)c(C)c1Cl | -0.229
35 | CC1CCc2cc(F)ccc2N1C(=O)CSc1nnc2c(n1)[nH]c1ccc(F)cc12 (stereo unspecified) | -0.403
36 | CCOC(=O)N1CCN(C(=O)C2CCN(Cc3ccc(OC)cc3OC)CC2)CC1 | 0.0344
37 | COc1ccc(CN2C(=O)c3ccccc3C(/C=N/OCc3ccc(Cl)cc3)C2=O)cc1 (stereo unspecified) | 0.378
38 | N#Cc1nc(Cc2ccccc2)oc1NCCc1ccccc1 | -1.85
39 | COCC(=O)N(Cc1nc2ccccc2c(=O)[nH]1)Cc1cccs1 | 0.604
40 | CC(C)C[C@H](NC(=O)NCCc1ccc(Cl)cc1)C(=O)O | 2.58
41 | COc1ccc2c(-c3ccccc3)cc(SCC(=O)N(C)C3CCS(=O)(=O)C3)nc2c1 (stereo unspecified) | 2.36
42 | CC(CN1CCOCC1)(NS(=O)(=O)c1ccccc1)c1ccccc1 (stereo unspecified) | -0.0802
43 | Fc1cccc2sc(Nc3nc4ccccc4s3)nc12 | 2.21
44 | CCOC(=O)c1cccc(NC(=O)CCc2nc(-c3ccc(C)cc3)no2)c1 | -0.79
45 | COCC(C)NC(=O)c1ccccc1OC(C)=O (stereo unspecified) | -0.44
46 | Cc1ccc2cc(CN(Cc3cccs3)Cc3nnnn3CC3CCCO3)c(=O)[nH]c2c1 (stereo unspecified) | -0.0837
47 | Cc1oc(-c2cccc(Cl)c2)nc1CSCC(=O)O | -0.753
48 | N#Cc1c(NC(=O)C2CC(c3ccccc3O)=NO2)sc2c1CCC2 (stereo unspecified) | -0.0566

Row | Structure (SMILES) | z-score
49 | Cc1cccc(Cn2c(NCC(C)O)nc3c2c(=O)n(C)c(=O)n3C)c1 (stereo unspecified) | 0.143
50 | Cc1ccc(C2=[N+]([O-])C(C)(C)N(O)C2(C)C)cc1 | -0.258
51 | Cn1c(-c2ccccc2)cnc1SCC(=O)N1CCCCC1 | -0.0912
52 | CC(C)(C)C(=O)OCCNc1nc(-c2ccccc2)nc2ccccc12 | -0.19
53 | c1ccc(C2CC(c3ccccc3)n3ncnc3N2)cc1 (stereo unspecified) | 0.175
54 | CCC(C)[C@@H](C(=O)NCC1CCC(C(=O)O)CC1)n1nnc2ccccc2c1=O (stereo partly specified) | -0.157
55 | CC(C)OC(=O)C1C(=O)CC(C)(O)C(C(=O)OC(C)C)C1c1cccnc1 (stereo unspecified) | -0.0253
56 | CNc1cc(C)nc(-n2nc(C)cc2C)n1 | -0.496
57 | Cc1cc(NC(=O)c2cc3n(n2)C(C(F)(F)F)CC(c2ccco2)N3)no1 (stereo unspecified) | 0.191
58 | CCc1ccc(OCC(=O)Nc2ncc3c(n2)CC(C)(C)CC3=O)cc1 | -0.103
59 | CNC(=O)c1csc(-c2ccc(C)cc2)n1 | -0.0517
60 | O=C(c1cnn2c(C(F)(F)F)cc(-c3ccco3)nc12)N1CCc2ccccc2C1 | -1.04
61 | Cc1noc(C)c1COC(=O)CCc1nc2ccccc2s1 | 0.465
62 | O=C(Nc1nc(=O)n(C(=O)C2CC2)s1)c1ccccc1 | -0.0174
63 | O=C(c1ccccc1)c1ccc(C(=O)N2CCOCC2)cc1 | -0.534
64 | O=C(Cn1cccc1C(=O)c1ccccc1)NCCCN1CCOCC1 | 0.641
65 | Cn1ncc2c(NNC(=O)c3ccc(Cl)c(Cl)c3)ncnc21 | 0.000366
66 | CCOC(=O)c1ccc(NC(=O)c2cnccn2)cc1 | -0.223
67 | O=C(c1scc2c1CCCC2)N1CCOCC1 | 0.764
68 | Oc1ccc(Nc2nc(-c3cccs3)cs2)cc1 | 0.139
69 | Cn1cc(S(=O)(=O)NCc2ccco2)c(=O)n(C)c1=O | 0.0811
70 | O=S(=O)(/C=C/c1ccccc1)NCc1ccccc1Cl | 0.155
71 | O=C(COc1ccccc1)Nc1ccccc1N1CCN(c2ccccc2)CC1 | 0.46
